Several values for one entry are separate records, joined by “and”; a condition that tells them apart may be missing. Equal values may be shown once. Inconclusive means that the source gave no clear call. Such entries were picked first, then a sample of the others. Potencies beside an inconclusive call are fits to weak or partial responses and may not hold up. Activity calls are given as the source filed them. Unless noted, calls follow the shape of the dose curve; as a rule, active = well fitted curve in the direction sought with a large enough effect in the repeat runs; inconclusive = weak or mixed curves; inactive = no such curve, though single readings can be large; an effect the other way counts as inactive or inconclusive.
What was measured:
[1] = biological target: Progesterone receptor (Homo sapiens) (UniProt P06401); experiment: qHTS assay to identify small molecule agonists of the progesterone receptor (PR) signaling pathway (AID 1346784; calls by dose curve; also: nearly all actives have a fitted effect of over 30% in size; as to activation: % is scaled to controls: 0 for no effect and ±100 for the full control effect); settings: PR-UAS-bla HEK293T, beta-lactamase FRET ratio, 16 h; activation: at 92.4 µM (top of the series) unless noted
Chain of UniProt P06401 (P06401 whole entry, looked up): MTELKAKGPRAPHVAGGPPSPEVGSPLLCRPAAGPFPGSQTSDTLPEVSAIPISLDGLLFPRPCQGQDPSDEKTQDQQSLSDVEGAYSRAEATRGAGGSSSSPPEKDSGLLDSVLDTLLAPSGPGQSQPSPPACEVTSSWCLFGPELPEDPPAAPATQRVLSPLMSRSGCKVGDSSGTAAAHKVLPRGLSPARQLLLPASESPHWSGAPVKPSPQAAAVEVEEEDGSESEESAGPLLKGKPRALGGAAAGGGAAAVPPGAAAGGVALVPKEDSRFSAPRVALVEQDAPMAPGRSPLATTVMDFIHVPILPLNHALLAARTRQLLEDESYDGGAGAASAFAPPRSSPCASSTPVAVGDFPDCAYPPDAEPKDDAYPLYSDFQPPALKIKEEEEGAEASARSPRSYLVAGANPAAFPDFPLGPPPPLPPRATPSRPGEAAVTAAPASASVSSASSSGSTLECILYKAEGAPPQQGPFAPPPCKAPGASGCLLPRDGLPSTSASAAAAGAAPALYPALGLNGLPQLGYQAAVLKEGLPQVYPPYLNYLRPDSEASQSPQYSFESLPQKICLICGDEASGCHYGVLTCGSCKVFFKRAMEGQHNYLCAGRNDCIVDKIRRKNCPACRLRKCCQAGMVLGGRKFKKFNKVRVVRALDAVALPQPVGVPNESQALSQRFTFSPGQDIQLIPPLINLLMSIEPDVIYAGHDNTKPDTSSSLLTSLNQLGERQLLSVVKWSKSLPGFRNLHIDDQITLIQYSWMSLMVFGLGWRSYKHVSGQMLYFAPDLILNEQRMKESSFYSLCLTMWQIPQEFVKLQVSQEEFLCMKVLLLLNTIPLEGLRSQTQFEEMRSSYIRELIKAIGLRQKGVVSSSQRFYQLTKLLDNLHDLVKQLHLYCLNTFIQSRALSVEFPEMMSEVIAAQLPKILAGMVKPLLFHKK
Procedure, shortened: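 Agonist qHTS: compounds pinned onto 3,000 PR-UAS-bla HEK 293T cells per well in charcoal-stripped serum medium, 16hr at 37C, then beta-lactamase activity measured by LiveBLAzer FRET fluorescence after 2 hours at room temperature.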

[2] = biological target: Progesterone receptor (Homo sapiens) (UniProt P06401); experiment: qHTS assay to identify small molecule antagonists of the progesterone receptor (PR) signaling pathway (AID 1346795; active = well fitted inhibition curve with a large enough effect in the signal ratio in the repeat runs, not every such curve was filed as active; inconclusive = weak or mixed curves; the % refers to the signal ratio); settings: PR-UAS-bla HEK293T, beta-lactamase FRET ratio, 16 h; activity change, negative = inhibition: at 92.4 µM (top of the series) unless noted
Procedure, shortened: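 Antagonist mode with agonist R5020 at 1 nM final and 16 hr incubation at 37C. Reporter was beta-lactamase driven by UAS in HEK293T (PR-UAS-bla), 2% charcoal-stripped serum; signal from LiveBLAzer FRET substrate, 2 hr at room temperature.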

[3] = qHTS assay to identify small molecule antagonists of the progesterone receptor (PR) signaling pathway - cell viability counter screen (AID 1346798); also: nearly all actives have a fitted effect of over 50% in size
Procedure, shortened: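 Cytotoxicity read as CellTiter-Glo luminescence (30 min, room temperature) in the same wells as the beta-lactamase readout. HEK293T PR-UAS-bla cells in charcoal-stripped 2% FBS received compound and R5020, then 16 h at 37C, 5% CO2.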

[4] = qHTS assay to identify small molecule agonists of the progesterone receptor (PR) signaling pathway - cell viability counter screen (AID 1346799; calls by dose curve; also: nearly all actives have a fitted effect of over 45% in size)
Procedure, shortened: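 Cytotoxicity measured by CellTiter-Glo luminescence (30 min, RT) in the same wells as the PR beta-lactamase agonist read. Those HEK293T cells had 16 h compound treatment at 37 C in 2% charcoal-stripped FBS medium.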

[5] = qHTS assay to identify small molecule antagonists of the TGF-beta/Smad signaling pathway - cell viability counter screen (AID 1346824); also: nearly all actives have a fitted effect of over 50% in size
Procedure, shortened: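 Cytotoxicity counter-screen run in the same wells as the beta-lactamase Smad reporter read: CellTiter-Glo luminescence after 30 min at room temperature. HEK 293T SBE-bla cells had 5 hr compound exposure at 37 C with TGF-beta1 (0.25 ng/mL stock).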

[6] = qHTS assay to identify small molecule agonists of the TGF-beta/Smad signaling pathway - cell viability counter screen (AID 1346829); also: nearly all actives have a fitted effect of over 45% in size
Procedure, shortened: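 In parallel with the Smad reporter read, viability of HEK 293T cells stably carrying SBE-bla is quantified by ATP luminescence following 5 hr compound treatment.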

[7] = qHTS assay to identify small molecule agonists of the TGF-beta/Smad signaling pathway (AID 1346859; active = well fitted activation curve with a large enough effect in the signal ratio in the repeat runs, not every such curve was filed as active; inconclusive = weak or mixed curves; the % refers to the signal ratio); settings: SBE-bla HEK293T, TGF-beta/Smad beta-lactamase reporter, 5 h; activation: at 76.8 µM (top of the series)
Procedure, shortened: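 Fluorescence (ex 405 nm; em 460 and 530 nm) was read 2 h after LiveBLAzer FRET substrate at RT. The preceding compound treatment of overnight-plated SBE-bla HEK293T cells lasted 5 h at 37 C.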

[8] = qHTS assay to identify small molecule antagonists of the TGF-beta/Smad signaling pathway (AID 1346924; active = well fitted inhibition curve with a large enough effect in the signal ratio in the repeat runs, not every such curve was filed as active; inconclusive = weak or mixed curves; the % refers to the signal ratio); settings: SBE-bla HEK293T, TGF-beta/Smad reporter, beta-lactamase ratio; activity, negative = inhibition: at 76.8 µM (top of the series) unless noted
Procedure, shortened: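 SBE-bla HEK 293T cells were plated overnight, then received compound in DMSO plus TGF-beta1 (added as a 0.25 ng/mL solution) and were incubated 5 h at 37 C. Beta-lactamase reporter activity was read after 2 h at room temperature with LiveBLAzer B/G FRET substrate (ex 405, em 460/530 nm).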

[9] = Human pregnane X receptor (PXR) small molecule agonists, qHTS cell viability counter screen (AID 1346977); also: nearly all actives have a fitted effect of over 50% in size
Procedure, shortened: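 Same-well viability read: CellTiter-Fluor added after 23 hr compound exposure, fluorescence measured 1 hr later. Cells were PXR-Luc HepG2 seeded at 2,000/well in 5% charcoal-stripped FBS medium, rested 5 hr before dosing at 37 C.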

[10] = biological target: Thyrotropin-releasing hormone receptor (Homo sapiens) (UniProt P34981); experiment: qHTS assay to identify small molecule antagonists of the thyrotropin-releasing hormone receptor (TRHR) signaling pathway (AID 1346877; active = well fitted inhibition curve with a large enough effect in the repeat runs, not every such curve was filed as active; inconclusive = weak or mixed curves; as to activity, negative = inhibition: % is scaled to controls: 0 for no effect and ±100 for the full control effect)
Chain of UniProt P34981 (P34981 whole entry, looked up): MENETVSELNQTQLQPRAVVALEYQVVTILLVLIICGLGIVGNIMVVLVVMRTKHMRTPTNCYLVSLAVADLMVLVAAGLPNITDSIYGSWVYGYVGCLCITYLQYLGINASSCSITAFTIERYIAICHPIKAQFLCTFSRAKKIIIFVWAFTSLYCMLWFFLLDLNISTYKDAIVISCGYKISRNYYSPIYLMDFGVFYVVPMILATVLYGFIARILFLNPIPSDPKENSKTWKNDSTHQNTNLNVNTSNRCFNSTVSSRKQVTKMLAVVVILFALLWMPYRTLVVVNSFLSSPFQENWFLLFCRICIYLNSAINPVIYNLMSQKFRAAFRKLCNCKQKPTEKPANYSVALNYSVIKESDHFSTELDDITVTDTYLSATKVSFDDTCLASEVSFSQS
Procedure, shortened: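 Following an 18 h incubation at 37 °C and a 2 h calcium dye load, TRHR-HEK293 cells were exposed to compound (5 min, room temperature) and challenged with TRH, 1 nM final.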
Potency is read from the fitted curve at half-maximal effect; tags tell the direction and shape of the fitted curve or compound fluorescence and quenching.

SMILES: Oc1ccc(Cl)cc1Cc1cc(Cl)ccc1O
- Potency [1]: inconclusive: 12.2 µM [cytotoxic, full curve]
- Potency [2]: active: 15.6 µM and active: 15.4 µM and active: 18.8 µM
- Potency [3]: inconclusive: 69.8 µM [cytotoxic, single point] and inconclusive: 30.6 µM [cytotoxic, partial curve, poor fit]
- Potency [4]: active: 69.8 µM and inconclusive: 68.6 µM [cytotoxic] and inconclusive: 1.19 µM [cytotoxic, partial curve, poor fit]
- Potency [5]: inconclusive: 14.1 µM [cytotoxic, partial curve] and inconclusive: 27.5 µM [cytotoxic, partial curve] and inconclusive: 13.4 µM [cytotoxic, partial curve, poor fit]
- Potency [6]: inconclusive: 44.4 µM [cytotoxic, partial curve]

SMILES: O=Nc1ccc(Nc2ccccc2)cc1
- Potency [1]: inconclusive: 77 µM [inhibitor, partial curve, poor fit]
- activation [1]: inconclusive: -10.7%
- Potency [3]: inconclusive: 68.9 µM [cytotoxic, single point] and inconclusive: 77 µM [cytotoxic, single point]
- Potency [4]: inconclusive: 68.9 µM [cytotoxic, single point] and inconclusive: 77 µM [cytotoxic, single point]
- Potency [7]: inconclusive: 62 µM [rising, single point]
- activity, negative = inhibition [8]: inconclusive: 3.01% and inconclusive: 29.2%
- Potency [9]: inconclusive: 61.4 µM [cytotoxic] and inconclusive: 68.6 µM [cytotoxic, single point]

SMILES: CCCCCCCCCCCCCC[P+](CCCC)(CCCC)CCCC
- Potency [1]: inconclusive: 30.5 µM [cytotoxic, partial curve] and inconclusive: 61.1 µM [cytotoxic, partial curve]
- Potency [2]: inconclusive: 30.5 µM and inconclusive: 61.1 µM
- Potency [3]: active: 30.5 µM and active: 54.5 µM
- Potency [4]: active: 30.5 µM and inconclusive: 43.3 µM [cytotoxic, partial curve, poor fit]
- Potency [5]: active: 10.9 µM and active: 27.5 µM
- Potency [6]: inconclusive: 77.2 µM [cytotoxic, partial curve, poor fit] and active: 54.9 µM
- Potency [7]: inconclusive: 61.3 µM [single point] and inconclusive: 61.6 µM [single point]
- Potency [10]: inconclusive: 13.4 µM [inhibitor, partial curve]
- Potency [9]: active: 6.31 µM and active: 13.7 µM

SMILES: Cc1cc2c(C(C)C)c(O)c(O)c(C=O)c2c(O)c1-c1c(C)cc2c(C(C)C)c(O)c(O)c(C=O)c2c1O
- Potency [1]: inconclusive: 6.68 µM [cytotoxic, full curve]
- Potency [2]: active: 13.3 µM
- Potency [3]: inconclusive: 10.6 µM [cytotoxic, partial curve, poor fit]
- Potency [4]: inconclusive: 26.6 µM [cytotoxic, partial curve, poor fit]
- Potency [5]: inconclusive: 26.8 µM [cytotoxic]
- Potency [6]: inconclusive: 23.9 µM [cytotoxic, single point]
- Potency [10]: inactive
- Potency [8]: inconclusive: 107 µM [rising, partial curve, poor fit]

SMILES: CN(C)C(=O)C1(N2CCCCC2)CCN(CC[C@@]2(c3ccc(Cl)c(Cl)c3)CN(C(=O)c3ccccc3)CCO2)CC1
- activation [1]: inconclusive: -9.45%
- Potency [2]: active: 50.9 µM
- Potency [3]: inconclusive: 64.1 µM [cytotoxic, single point]
- Potency [4]: active: 20.3 µM
- Potency [5]: inconclusive: 57.6 µM [cytotoxic, single point]
- Potency [6]: inconclusive: 51.3 µM [cytotoxic]
- Potency [10]: inconclusive: 7.08 µM [inhibitor, full curve, poor fit]

SMILES: CC(C)(C)CC(C)(C)c1ccc(O)c(Cc2ccc(Cl)cc2Cl)c1
- Potency [1]: inconclusive: 23.7 µM [cytotoxic]
- Potency [2]: inconclusive: 29.8 µM [falling, single point]
- Potency [3]: inconclusive: 29.8 µM [cytotoxic, single point]
- Potency [4]: active: 33.5 µM
- Potency [5]: active: 21.3 µM
- Potency [6]: active: 19 µM
- Potency [7]: inconclusive: 21.3 µM [falling, partial curve]

SMILES: CCCCCCCCCCCCCC[P+](CCCC)(CCCC)CCCC (tested in a mixture with another compound)
- Potency [1]: inconclusive: 24.5 µM [cytotoxic]
- Potency [2]: inconclusive: 27.5 µM
- Potency [3]: active: 30.8 µM
- Potency [4]: active: 30.8 µM
- Potency [5]: active: 27.7 µM
- Potency [6]: active: 31.1 µM
- Potency [7]: inconclusive: 12.4 µM [rising, partial curve]
- Potency [8]: inconclusive: 62 µM [cytotoxic, single point]

SMILES: O=C(Nc1cccc(C(F)(F)F)c1)c1cc(Br)cc(Br)c1O
- activation [1]: inconclusive: -18.8%
- Potency [2]: inconclusive: 19.3 µM
- Potency [3]: active: 21.7 µM
- Potency [4]: inconclusive: 1.37 µM [rising, partial curve]
- Potency [5]: inconclusive: 21.9 µM [cytotoxic, partial curve]
- Potency [6]: inconclusive: 19.5 µM [cytotoxic, partial curve]
- Potency [7]: inconclusive: 27.5 µM [rising, partial curve]
- Potency [8]: inconclusive: 30.9 µM [rising, partial curve]

SMILES: [Cl][Bi]([Cl])([c]1ccccc1)([c]1ccccc1)[c]1ccccc1
- Potency [1]: inconclusive: 8.58 µM [cytotoxic, full curve]
- Potency [2]: inconclusive: 19.2 µM [falling, full curve]
- Potency [3]: active: 3.05 µM
- Potency [4]: active: 1.71 µM
- Potency [5]: inconclusive: 68.8 µM [cytotoxic, partial curve, poor fit]
- Potency [6]: inconclusive: 54.6 µM [cytotoxic, single point]
- Potency [7]: inconclusive: 6.88 µM [rising, full curve]
- Potency [10]: inconclusive: 33.6 µM [inhibitor, single point]
- Potency [8]: inconclusive: 3.07 µM [rising, full curve]

SMILES: CCOc1nc2cccc(C(=O)OC(C)OC(=O)OC3CCCCC3)c2n1Cc1ccc(-c2ccccc2-c2nn[nH]n2)cc1 (configuration not stated)
- Potency [1]: inconclusive: 24.3 µM [cytotoxic]
- Potency [2]: inconclusive: 34.3 µM [falling, partial curve, poor fit]
- Potency [3]: active: 21.7 µM
- Potency [4]: active: 19.3 µM
- Potency [5]: inconclusive: 38.9 µM [cytotoxic, single point]
- Potency [6]: inconclusive: 43.6 µM [cytotoxic, single point]
- Potency [7]: inconclusive: 17.4 µM [rising, partial curve]
- Potency [8]: inconclusive: 17.4 µM [rising, partial curve]
- Potency [9]: inconclusive: 61.1 µM [cytotoxic, single point]

SMILES: O=C(CCCCCCCCc1cccnc1)N1CCC(C=C(c2ccccc2)c2ccccc2)CC1
- Potency [1]: inconclusive: 30.6 µM [cytotoxic]
- Potency [2]: active: 21.7 µM
- Potency [3]: active: 30.6 µM
- Potency [4]: active: 30.6 µM
- Potency [5]: active: 54.9 µM
- Potency [6]: active: 54.9 µM
- Potency [7]: inconclusive: 43.6 µM [rising, partial curve]
- Potency [8]: inconclusive: 49 µM [rising, single point]
- Potency [9]: inconclusive: 27.3 µM [cytotoxic, single point]

SMILES: CCCC(c1cc(C(C)(C)C)c(O)cc1C)c1cc(C(C)(C)C)c(O)cc1C
- Potency [1]: inconclusive: 13.9 µM [cytotoxic, full curve]
- Potency [2]: inconclusive: 31 µM [falling, full curve]
- Potency [3]: active: 22 µM
- Potency [4]: inconclusive: 9.81 µM [cytotoxic, full curve, poor fit]
- Potency [5]: active: 24.8 µM
- Potency [6]: active: 24.8 µM
- Potency [7]: inconclusive: 62.4 µM [single point]
- Potency [8]: inconclusive: 55.6 µM [cytotoxic]

SMILES: Cc1cc(O)c2ccccc2c1O
- Potency [1]: inconclusive: 33.5 µM [falling, partial curve, poor fit]
- Potency [2]: active: 23.7 µM
- Potency [3]: inconclusive: 33.5 µM [cytotoxic, single point]
- Potency [4]: inconclusive: 13.3 µM [rising, single point]
- Potency [5]: active: 19 µM
- Potency [6]: active: 23.9 µM
- Potency [7]: inconclusive: 21.3 µM [rising, partial curve]
- Potency [8]: inconclusive: 8.49 µM [rising, full curve]

SMILES: Cc1cc(Cc2cc(C)cc(C(C)(C)C)c2O)c(O)c(C(C)(C)C)c1
- Potency [1]: inconclusive: 27.4 µM [full curve] and inconclusive: 21.7 µM [cytotoxic, full curve]
- Potency [2]: inconclusive: 68.9 µM [falling, single point] and inconclusive: 68.6 µM [falling, single point]
- Potency [3]: active: 43.5 µM and active: 48.6 µM
- Potency [4]: active: 27.4 µM and inconclusive: 12.2 µM [cytotoxic, full curve, poor fit]
- Potency [5]: active: 49.2 µM and active: 54.9 µM
- Potency [7]: inconclusive: 62 µM

SMILES: Oc1cc2ccccc2c2ccccc12
- activation [1]: inconclusive: -16.7%
- Potency [2]: active: 6.11 µM
- Potency [3]: active: 6.86 µM
- Potency [4]: active: 12.2 µM
- Potency [5]: active: 11 µM
- Potency [6]: active: 5.49 µM
- Potency [7]: inconclusive: 6.16 µM [rising, full curve]
- Potency [8]: inconclusive: 9.77 µM [full curve]

Source: PubChem BioAssay (Tox21)
